Shown are siRNA guide strands that differ only in the seed, positions 2 to 7.
Key:
GL261 = experiment: cell viability relative to siNT1 (ATP content); H4 human neuroglioma and GL261 mouse glioma; higher = less toxic; settings: siRNA concentration 25 nM; 96 h; mouse
H4 = experiment: as above; settings: siRNA concentration 10 nM; 96 h; human
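Also: cells reverse transfected with siRNA duplexes via lipid reagent, ATP read by luminescence, triplicate wells, values scaled to mean viability with non-targeting control siNT1.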

Sequence	cell viability (GL261) [%]	cell viability (H4) [%]
UCUCAAGACAUGUAAACCA	42.3	80
UCUCAAUACAUGUAAACCA	38.2	120
UCUCACAACAUGUAAACCA	28.4	89.3
UCUCACCACAUGUAAACCA	18.4	68.4
UCUCACGACAUGUAAACCA	28.9	107
UCUCACUACAUGUAAACCA	29	77.2
UCUCAGAACAUGUAAACCA	28.3	78.7
UCUCAGCACAUGUAAACCA	15.7	66.4
UCUCAGGACAUGUAAACCA	47.1	87.4
UCUCAGUACAUGUAAACCA	19.6	90.1
UCUCAUAACAUGUAAACCA	21	86.2
UCUCAUCACAUGUAAACCA	40.4	88.6
UCUCAUGACAUGUAAACCA	20.6	88.6
UCUCAUUACAUGUAAACCA	33	121
UCUCCAAACAUGUAAACCA	53.1	102
UCUCCACACAUGUAAACCA	39.8	100
UCUCCAGACAUGUAAACCA	37.5	94.1
UCUCCAUACAUGUAAACCA	46.9	98.1
UCUCCCAACAUGUAAACCA	46	101
UCUCCCCACAUGUAAACCA	37.2	66.3
UCUCCCGACAUGUAAACCA	49.1	98.5
UCUCCCUACAUGUAAACCA	52.1	81.7
UCUCCGAACAUGUAAACCA	38.7	87.5
UCUCCGCACAUGUAAACCA	11.4	51

Sequence	cell viability (GL261) [%]	cell viability (H4) [%]
UCUCCGGACAUGUAAACCA	40.3	87
UCUCCGUACAUGUAAACCA	35.2	86.9
UCUCCUAACAUGUAAACCA	45.4	83.8
UCUCCUCACAUGUAAACCA	20.5	57
UCUCCUGACAUGUAAACCA	46.6	92.8
UCUCCUUACAUGUAAACCA	41.5	83
UCUCGAAACAUGUAAACCA	46	112
UCUCGACACAUGUAAACCA	51.1	77.2
UCUCGAGACAUGUAAACCA	46	87
UCUCGAUACAUGUAAACCA	42.1	81.7
UCUCGCAACAUGUAAACCA	28.4	72.5
UCUCGCCACAUGUAAACCA	23.1	75.1
UCUCGCGACAUGUAAACCA	56.3	82.3
UCUCGCUACAUGUAAACCA	30.2	99.1
UCUCGGAACAUGUAAACCA	33.4	80.5
UCUCGGCACAUGUAAACCA	28.8	36.4
UCUCGGGACAUGUAAACCA	32.5	90.3
UCUCGGUACAUGUAAACCA	41.6	75.2
UCUCGUAACAUGUAAACCA	42.6	73.9
UCUCGUCACAUGUAAACCA	34	79.4
UCUCGUGACAUGUAAACCA	66.9	84.1
UCUCGUUACAUGUAAACCA	48.9	90.1
UCUCUAAACAUGUAAACCA	40.1	79.7
UCUCUACACAUGUAAACCA	47.2	78.9

Sequence	cell viability (GL261) [%]	cell viability (H4) [%]
UCUCUAGACAUGUAAACCA	44.9	105
UCUCUAUACAUGUAAACCA	45.2	89.2
UCUCUCAACAUGUAAACCA	27.5	111
UCUCUCCACAUGUAAACCA	9.65	50
UCUCUCGACAUGUAAACCA	35.7	79
UCUCUCUACAUGUAAACCA	24.2	79.4
UCUCUGAACAUGUAAACCA	33.9	95.6
UCUCUGCACAUGUAAACCA	13	31.3
UCUCUGGACAUGUAAACCA	28.3	52.2
UCUCUGUACAUGUAAACCA	19.1	62.6
UCUCUUAACAUGUAAACCA	39.1	95.1
UCUCUUCACAUGUAAACCA	13.4	41.5
UCUCUUGACAUGUAAACCA	39.6	108
UCUCUUUACAUGUAAACCA	32.8	85.6
UCUGAAAACAUGUAAACCA	59.5	96.6
UCUGAACACAUGUAAACCA	59.8	81.8
UCUGAAGACAUGUAAACCA	54.8	76
UCUGAAUACAUGUAAACCA	72	80.3
UCUGACAACAUGUAAACCA	44.3	75.8
UCUGACCACAUGUAAACCA	30.8	45.7
UCUGACGACAUGUAAACCA	45.2	87.4
UCUGACUACAUGUAAACCA	62.6	89.8
UCUGAGAACAUGUAAACCA	58	83.8
UCUGAGCACAUGUAAACCA	29.3	45

Sequence	cell viability (GL261) [%]	cell viability (H4) [%]
UCUGAGGACAUGUAAACCA	53.1	75
UCUGAGUACAUGUAAACCA	48.8	96.1
UCUGAUAACAUGUAAACCA	45.3	88.2
UCUGAUCACAUGUAAACCA	76.2	86.5
UCUGAUGACAUGUAAACCA	46.3	108
UCUGAUUACAUGUAAACCA	42.5	105
UCUGCAAACAUGUAAACCA	55.4	92.7
UCUGCACACAUGUAAACCA	25.9	59
UCUGCAGACAUGUAAACCA	71.4	77.6
UCUGCAUACAUGUAAACCA	39.5	108
UCUGCCAACAUGUAAACCA	62.5	79.8
UCUGCCCACAUGUAAACCA	12.8	54.1
UCUGCCGACAUGUAAACCA	43.8	91.8
UCUGCCUACAUGUAAACCA	37.5	59.2
UCUGCGAACAUGUAAACCA	54.7	79.8
UCUGCGCACAUGUAAACCA	18.5	86.1
UCUGCGGACAUGUAAACCA	39.7	87
UCUGCGUACAUGUAAACCA	45.7	112
UCUGCUAACAUGUAAACCA	56.2	78.7
UCUGCUCACAUGUAAACCA	29.5	78.4
UCUGCUGACAUGUAAACCA	42.9	75.5
UCUGCUUACAUGUAAACCA	46.6	96.2
UCUGGAAACAUGUAAACCA	44.1	78.3
UCUGGACACAUGUAAACCA	21.9	42.5

Sequence	cell viability (GL261) [%]	cell viability (H4) [%]
UCUGGAGACAUGUAAACCA	34	93.8
UCUGGAUACAUGUAAACCA	32.2	65.9
UCUGGCAACAUGUAAACCA	27.9	93.1
UCUGGCCACAUGUAAACCA	60.3	23.5
UCUGGCGACAUGUAAACCA	32.9	71.3
UCUGGCUACAUGUAAACCA	24.2	38.2
UCUGGGAACAUGUAAACCA	15.6	33.8
UCUGGGCACAUGUAAACCA	14.2	2.37
UCUGGGGACAUGUAAACCA	17.6	23.6
UCUGGGUACAUGUAAACCA	33.6	14.4
UCUGGUAACAUGUAAACCA	80.2	80.2
UCUGGUCACAUGUAAACCA	32.6	42.3
UCUGGUGACAUGUAAACCA	56.2	76
UCUGGUUACAUGUAAACCA	56.4	85.1
UCUGUAAACAUGUAAACCA	60.7	110
UCUGUACACAUGUAAACCA	34.6	85.6
UCUGUAGACAUGUAAACCA	65.6	91.2
UCUGUAUACAUGUAAACCA	46.9	94.2
UCUGUCAACAUGUAAACCA	66.7	79.8
UCUGUCCACAUGUAAACCA	32.6	52.4
UCUGUCGACAUGUAAACCA	38.7	94
UCUGUCUACAUGUAAACCA	44.4	90.3

Source: the supplement of paper PMC8948288
